In the supplement of paper PMC10502849:
The list shows a part of the results. Many values rest on one well or one pass, so single values are uncertain.

Experiments:
[1] = system: H9 teratoma-derived LAM model cells, TSC2-/-; test: percent SyTOX+ dead cells; higher = more cytotoxic; conditions: 5 µM, treatment time 72 h, culture: 3D hyaluronic acid hydrogel
[2] = system: H9 teratoma-derived LAM model cells, WT; test: percent SyTOX+ dead cells; higher = more cytotoxic; conditions: 5 µM, treatment time 72 h, culture: 3D hyaluronic acid hydrogel, genotype: WT
[3] = system: H9 teratoma-derived LAM model cells, TSC2-/-; test: percent of cells invaded past median invasion distance of vehicle control; LAM is lymphangioleiomyomatosis; the cells come from teratomas of the human stem cell line H9; higher = more invasion; extreme values may be limits of the assay; conditions: 5 µM, treatment time 72 h, culture: 3D hyaluronic acid hydrogel
[4] = system: H9 teratoma-derived LAM model cells, WT; test: as above; conditions: 5 µM, treatment time 72 h, culture: 3D hyaluronic acid hydrogel, genotype: WT
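For percent SyTOX+ dead cells in this document: cells seeded atop a hyaluronic acid gel crosslinked via MMP-cleavable peptides, containing vitronectin peptides and methylcellulose, imaged live by high-content microscopy with automated analysis, one technical replicate per compound.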
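For percent of cells invaded past median invasion distance of vehicle control in this document: live cells imaged by high content microscopy and scored with in-house automated image analysis, one technical replicate per compound in each genotype and rapamycin condition.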

O=C1Cc2c([nH]c3ccc(Br)cc23)-c2ccccc2N1
percent SyTOX+ dead cells ([1]; rapamycin 0 nM): 36.5%
percent SyTOX+ dead cells ([1]; rapamycin 20 nM): 45.8%
percent SyTOX+ dead cells ([2]; rapamycin 0 nM): 41%
percent SyTOX+ dead cells ([2]; rapamycin 20 nM): 0%
percent ([3]; rapamycin 0 nM): 0.93%
percent ([3]; rapamycin 20 nM): 0%
percent ([4]; rapamycin 0 nM): 0%
percent ([4]; rapamycin 20 nM): 0%

COc1cc2ncnc(Nc3ccc(O)cc3)c2cc1OC [Janex-1, WHI-P131]
percent SyTOX+ dead cells ([1]; rapamycin 0 nM): 17.6%
percent SyTOX+ dead cells ([1]; rapamycin 20 nM): 13.1%
percent SyTOX+ dead cells ([2]; rapamycin 0 nM): 15.3%
percent SyTOX+ dead cells ([2]; rapamycin 20 nM): 13.1%
percent ([3]; rapamycin 0 nM): 19.2%
percent ([3]; rapamycin 20 nM): 8.74%
percent ([4]; rapamycin 0 nM): 9.05%
percent ([4]; rapamycin 20 nM): 25.3%

CC(C)C[C@H](NC(=O)[C@H](CCc1ccccc1)NC(=O)CN1CCOCC1)C(=O)N[C@@H](Cc1ccccc1)C(=O)N[C@@H](CC(C)C)C(=O)[C@@]1(C)CO1 [Carfilzomib, PR-171, ONO-7057]
percent SyTOX+ dead cells ([1]; rapamycin 0 nM): 45.3%
percent SyTOX+ dead cells ([1]; rapamycin 20 nM): 46.8%
percent SyTOX+ dead cells ([2]; rapamycin 0 nM): 22.4%
percent SyTOX+ dead cells ([2]; rapamycin 20 nM): 14%
percent ([3]; rapamycin 0 nM): 1.04%
percent ([3]; rapamycin 20 nM): 3.65%
percent ([4]; rapamycin 0 nM): 3.17%
percent ([4]; rapamycin 20 nM): 1.3%

C[C@@H]1CN(CC(=O)Nc2ccc3c(c2)Cc2cccc(-c4cc(=O)cc(N5CCOCC5)o4)c2S3)C[C@H](C)O1
percent SyTOX+ dead cells ([1]; rapamycin 0 nM): 8.75%
percent SyTOX+ dead cells ([1]; rapamycin 20 nM): 6.09%
percent SyTOX+ dead cells ([2]; rapamycin 0 nM): 15.6%
percent SyTOX+ dead cells ([2]; rapamycin 20 nM): 18.3%
percent ([3]; rapamycin 0 nM): 71.2%
percent ([3]; rapamycin 20 nM): 87.4%
percent ([4]; rapamycin 0 nM): 53.1%
percent ([4]; rapamycin 20 nM): 50.7%

[O-][S+](c1ccccc1)c1ccc2nnnn2n1 (centres undefined)
percent SyTOX+ dead cells ([1]; rapamycin 0 nM): 8.21%
percent SyTOX+ dead cells ([1]; rapamycin 20 nM): 9.03%
percent SyTOX+ dead cells ([2]; rapamycin 0 nM): 7.47%
percent SyTOX+ dead cells ([2]; rapamycin 20 nM): 11.1%
percent ([3]; rapamycin 0 nM): 30.7%
percent ([3]; rapamycin 20 nM): 37.9%
percent ([4]; rapamycin 0 nM): 51.8%
percent ([4]; rapamycin 20 nM): 36.1%

COc1cc2c(NC3CCN(C)CC3)nc(N3CCCN(C)CC3)nc2cc1OCCCN(C)C
percent SyTOX+ dead cells ([1]; rapamycin 0 nM): 19.8%
percent SyTOX+ dead cells ([1]; rapamycin 20 nM): 24.4%
percent SyTOX+ dead cells ([2]; rapamycin 0 nM): 17.6%
percent SyTOX+ dead cells ([2]; rapamycin 20 nM): 21.3%
percent ([3]; rapamycin 0 nM): 16.9%
percent ([3]; rapamycin 20 nM): 5.43%
percent ([4]; rapamycin 0 nM): 30.8%
percent ([4]; rapamycin 20 nM): 17.3%

N#CCc1ccc(Nc2nc(Nc3cc(C4CCC4)[nH]n3)c3ccccc3n2)cc1
percent SyTOX+ dead cells ([1]; rapamycin 0 nM): 43.9%
percent SyTOX+ dead cells ([1]; rapamycin 20 nM): 34.5%
percent SyTOX+ dead cells ([2]; rapamycin 0 nM): 56.3%
percent SyTOX+ dead cells ([2]; rapamycin 20 nM): 52.8%
percent ([3]; rapamycin 0 nM): 0.65%
percent ([3]; rapamycin 20 nM): 21.8%
percent ([4]; rapamycin 0 nM): 0%
percent ([4]; rapamycin 20 nM): 0%

O=C1NC(=O)C(c2ccccc2[N+](=O)[O-])=C1Nc1ccc(O)c(Cl)c1
percent SyTOX+ dead cells ([1]; rapamycin 0 nM): 10.4%
percent SyTOX+ dead cells ([1]; rapamycin 20 nM): 16%
percent SyTOX+ dead cells ([2]; rapamycin 0 nM): 13.6%
percent SyTOX+ dead cells ([2]; rapamycin 20 nM): 14.4%
percent ([3]; rapamycin 0 nM): 52.1%
percent ([3]; rapamycin 20 nM): 28.4%
percent ([4]; rapamycin 0 nM): 12.1%
percent ([4]; rapamycin 20 nM): 8.56%

CCN(CCO)CCCOc1ccc2c(Nc3cc(CC(=O)Nc4cccc(F)c4)[nH]n3)ncnc2c1 [AZD-1152-HQPA, Barasertib]
percent SyTOX+ dead cells ([1]; rapamycin 0 nM): 19.9%
percent SyTOX+ dead cells ([1]; rapamycin 20 nM): 11.3%
percent SyTOX+ dead cells ([2]; rapamycin 0 nM): 21.2%
percent SyTOX+ dead cells ([2]; rapamycin 20 nM): 14.7%
percent ([3]; rapamycin 0 nM): 64%
percent ([3]; rapamycin 20 nM): 27.8%
percent ([4]; rapamycin 0 nM): 41.5%
percent ([4]; rapamycin 20 nM): 27.2%

Cc1cc(C(=O)NOCCO)c(Nc2ccc(I)cc2F)n(C)c1=O
percent SyTOX+ dead cells ([1]; rapamycin 0 nM): 27.2%
percent SyTOX+ dead cells ([1]; rapamycin 20 nM): 19.5%
percent SyTOX+ dead cells ([2]; rapamycin 0 nM): 34.9%
percent SyTOX+ dead cells ([2]; rapamycin 20 nM): 32%
percent ([3]; rapamycin 0 nM): 49.3%
percent ([3]; rapamycin 20 nM): 75.1%
percent ([4]; rapamycin 0 nM): 46.6%
percent ([4]; rapamycin 20 nM): 29.2%

O=C1NC(=O)/C(=C/c2ccc(-c3ccc(F)cc3O)o2)S1
percent SyTOX+ dead cells ([1]; rapamycin 0 nM): 45.7%
percent SyTOX+ dead cells ([1]; rapamycin 20 nM): 24.6%
percent SyTOX+ dead cells ([2]; rapamycin 0 nM): 25.1%
percent SyTOX+ dead cells ([2]; rapamycin 20 nM): 28.9%
percent ([3]; rapamycin 0 nM): 11%
percent ([3]; rapamycin 20 nM): 5.03%
percent ([4]; rapamycin 0 nM): 14.2%
percent ([4]; rapamycin 20 nM): 8.59%

C/C(=N\N=C(N)N)c1ccc(NC(=O)c2cc3cccc([N+](=O)[O-])c3[nH]2)cc1
percent SyTOX+ dead cells ([1]; rapamycin 0 nM): 8.99%
percent SyTOX+ dead cells ([1]; rapamycin 20 nM): 8.19%
percent SyTOX+ dead cells ([2]; rapamycin 0 nM): 11.3%
percent SyTOX+ dead cells ([2]; rapamycin 20 nM): 8.11%
percent ([3]; rapamycin 0 nM): 36.8%
percent ([3]; rapamycin 20 nM): 16.8%
percent ([4]; rapamycin 0 nM): 14.5%
percent ([4]; rapamycin 20 nM): 20.1%

O=S(=O)(NCCSSCCNS(=O)(=O)c1cc(Cl)ccc1Cl)c1cc(Cl)ccc1Cl
percent SyTOX+ dead cells ([1]; rapamycin 0 nM): 12.6%
percent SyTOX+ dead cells ([1]; rapamycin 20 nM): 18.2%
percent SyTOX+ dead cells ([2]; rapamycin 0 nM): 10.2%
percent SyTOX+ dead cells ([2]; rapamycin 20 nM): 7.74%
percent ([3]; rapamycin 0 nM): 46.5%
percent ([3]; rapamycin 20 nM): 35.6%
percent ([4]; rapamycin 0 nM): 35.3%
percent ([4]; rapamycin 20 nM): 37.1%

CN(C)/N=N/c1[nH]cnc1C(N)=O
percent SyTOX+ dead cells ([1]; rapamycin 0 nM): 16.7%
percent SyTOX+ dead cells ([1]; rapamycin 20 nM): 14.4%
percent SyTOX+ dead cells ([2]; rapamycin 0 nM): 16.4%
percent SyTOX+ dead cells ([2]; rapamycin 20 nM): 14.1%
percent ([3]; rapamycin 0 nM): 33.6%
percent ([3]; rapamycin 20 nM): 37.1%
percent ([4]; rapamycin 0 nM): 54.5%
percent ([4]; rapamycin 20 nM): 43.8%

CCc1cc(-c2oncc2-c2ccc(OC)cc2)c(O)cc1OC
percent SyTOX+ dead cells ([1]; rapamycin 0 nM): 42.3%
percent SyTOX+ dead cells ([1]; rapamycin 20 nM): 34.6%
percent SyTOX+ dead cells ([2]; rapamycin 0 nM): 60%
percent SyTOX+ dead cells ([2]; rapamycin 20 nM): 10%
percent ([3]; rapamycin 0 nM): 83.1%
percent ([3]; rapamycin 20 nM): 61.4%
percent ([4]; rapamycin 0 nM): 12.5%
percent ([4]; rapamycin 20 nM): 10%

O=C(Nc1ccc([N+](=O)[O-])cc1Cl)c1cc(Cl)ccc1O [Niclosamide]
percent SyTOX+ dead cells ([1]; rapamycin 0 nM): 28.1%
percent SyTOX+ dead cells ([1]; rapamycin 20 nM): 12.7%
percent SyTOX+ dead cells ([2]; rapamycin 0 nM): 22.6%
percent SyTOX+ dead cells ([2]; rapamycin 20 nM): 2.79%
percent ([3]; rapamycin 0 nM): 26.1%
percent ([3]; rapamycin 20 nM): 25.7%
percent ([4]; rapamycin 0 nM): 1.41%
percent ([4]; rapamycin 20 nM): 9.78%

COc1cc2c(N3CCN(C(=O)Nc4ccc(OC(C)C)cc4)CC3)ncnc2cc1OCCCN1CCCCC1
percent SyTOX+ dead cells ([1]; rapamycin 0 nM): 9.09%
percent SyTOX+ dead cells ([1]; rapamycin 20 nM): 31.1%
percent SyTOX+ dead cells ([2]; rapamycin 0 nM): 18.4%
percent SyTOX+ dead cells ([2]; rapamycin 20 nM): 24.2%
percent ([3]; rapamycin 0 nM): 36.4%
percent ([3]; rapamycin 20 nM): 18.4%
percent ([4]; rapamycin 0 nM): 10.7%
percent ([4]; rapamycin 20 nM): 6.67%

CC[C@@H]1/C=C(\C)C[C@H](C)C[C@H](OC)[C@H]2O[C@@](O)(C(=O)C(=O)N3CCCC[C@H]3C(=O)O[C@H](/C(C)=C/[C@@H]3CC[C@H](Cl)[C@H](OC)C3)[C@H](C)[C@@H](O)CC1=O)[C@H](C)C[C@@H]2OC [Pimecrolimus, Elidel, SDZ-ASM-981]
percent SyTOX+ dead cells ([1]; rapamycin 0 nM): 9.43%
percent SyTOX+ dead cells ([1]; rapamycin 20 nM): 12.2%
percent SyTOX+ dead cells ([2]; rapamycin 0 nM): 27.9%
percent SyTOX+ dead cells ([2]; rapamycin 20 nM): 17.7%
percent ([3]; rapamycin 0 nM): 26.4%
percent ([3]; rapamycin 20 nM): 39.3%
percent ([4]; rapamycin 0 nM): 2.42%
percent ([4]; rapamycin 20 nM): 9.09%

O=S(=O)(NCC1CC1)c1ccc(Nc2nccc(N3CCCc4cc(O)ccc43)n2)cc1 [Pyrintegrin]
percent SyTOX+ dead cells ([1]; rapamycin 0 nM): 37.5%
percent SyTOX+ dead cells ([1]; rapamycin 20 nM): 38.8%
percent SyTOX+ dead cells ([2]; rapamycin 0 nM): 75.8%
percent SyTOX+ dead cells ([2]; rapamycin 20 nM): 74.2%
percent ([3]; rapamycin 0 nM): 0%
percent ([3]; rapamycin 20 nM): 0%
percent ([4]; rapamycin 0 nM): 1.52%
percent ([4]; rapamycin 20 nM): 0%

O=C(Nc1ncc(SCCN2CCCC2)s1)[C@]1(c2ccc(S(=O)(=O)C3CC3)cc2)C[C@H]1C1CCCCC1
percent SyTOX+ dead cells ([1]; rapamycin 0 nM): 12%
percent SyTOX+ dead cells ([1]; rapamycin 20 nM): 12.2%
percent SyTOX+ dead cells ([2]; rapamycin 0 nM): 16.5%
percent SyTOX+ dead cells ([2]; rapamycin 20 nM): 12.1%
percent ([3]; rapamycin 0 nM): 69.4%
percent ([3]; rapamycin 20 nM): 66.1%
percent ([4]; rapamycin 0 nM): 55.3%
percent ([4]; rapamycin 20 nM): 46%

CO[C@H]1C[C@@H]2CC[C@@H](C)[C@@](O)(O2)C(=O)C(=O)N2CCCC[C@H]2C(=O)O[C@H]([C@H](C)C[C@@H]2CC[C@@H](OCCO)[C@H](OC)C2)CC(=O)[C@H](C)/C=C(\C)[C@@H](O)[C@@H](OC)C(=O)[C@H](C)C[C@H](C)/C=C/C=C/C=C/1C [Everolimus, RAD-001, Certican]
percent SyTOX+ dead cells ([1]; rapamycin 0 nM): 5.36%
percent SyTOX+ dead cells ([1]; rapamycin 20 nM): 4.5%
percent SyTOX+ dead cells ([2]; rapamycin 0 nM): 10.3%
percent SyTOX+ dead cells ([2]; rapamycin 20 nM): 8.38%
percent ([3]; rapamycin 0 nM): 40.2%
percent ([3]; rapamycin 20 nM): 45%
percent ([4]; rapamycin 0 nM): 49.6%
percent ([4]; rapamycin 20 nM): 52.4%

O=C1OC(C=Cc2ccccc2)=NC1=Cc1cccnc1
percent SyTOX+ dead cells ([1]; rapamycin 0 nM): 3.3%
percent SyTOX+ dead cells ([1]; rapamycin 20 nM): 3%
percent SyTOX+ dead cells ([2]; rapamycin 0 nM): 9.17%
percent SyTOX+ dead cells ([2]; rapamycin 20 nM): 8.45%
percent ([3]; rapamycin 0 nM): 39.3%
percent ([3]; rapamycin 20 nM): 55%
percent ([4]; rapamycin 0 nM): 50.9%
percent ([4]; rapamycin 20 nM): 19.1%

COc1cc2c(cc1OC)-c1[nH]nc(Nc3cccc(F)c3)c1C2
percent SyTOX+ dead cells ([1]; rapamycin 0 nM): 20.7%
percent SyTOX+ dead cells ([1]; rapamycin 20 nM): 32.6%
percent SyTOX+ dead cells ([2]; rapamycin 0 nM): 31.4%
percent SyTOX+ dead cells ([2]; rapamycin 20 nM): 33.7%
percent ([3]; rapamycin 0 nM): 39.1%
percent ([3]; rapamycin 20 nM): 40.1%
percent ([4]; rapamycin 0 nM): 0%
percent ([4]; rapamycin 20 nM): 0%
